Source: patent publication US20040038212A1 (Chugai, published 2004)

Tests used:
Experiment in all cases: GST pull-down on glutathione-Sepharose beads, SDS-PAGE, BAS2000
[1] = target: T1, full-length ALEX1 protein, in vitro translated and [^35S]-methionine-labeled (human, UniProt Q9P291 1-453, [^35S]-methionine label (in vitro translation in rabbit reticulocyte lysate))
T1 construct: Full-length, 453 amino acids; also called [^35S]ALEX1; human ALEX1 protein
T1 sequence: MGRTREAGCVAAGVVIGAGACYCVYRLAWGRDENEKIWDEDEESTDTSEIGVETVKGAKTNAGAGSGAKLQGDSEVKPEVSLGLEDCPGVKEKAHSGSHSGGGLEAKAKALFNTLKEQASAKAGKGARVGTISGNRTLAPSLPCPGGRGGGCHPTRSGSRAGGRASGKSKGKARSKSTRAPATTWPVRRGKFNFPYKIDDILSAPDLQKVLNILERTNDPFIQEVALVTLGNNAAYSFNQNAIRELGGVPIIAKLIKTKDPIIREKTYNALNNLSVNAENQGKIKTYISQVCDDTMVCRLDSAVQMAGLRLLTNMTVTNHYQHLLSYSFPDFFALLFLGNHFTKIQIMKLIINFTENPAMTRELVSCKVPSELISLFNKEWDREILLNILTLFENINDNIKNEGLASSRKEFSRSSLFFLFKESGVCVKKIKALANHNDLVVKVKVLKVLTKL
Text: (§1) Interaction between ALEX1 and presenilin-1 (PS1) was investigated by pull-down assay. The large loop region of PS1 protruding into the cytoplasm reported to be the binding site with delta-catenin (PS1-CL: amino acid numbers 263-407 of PS-1 according to accession number L76517), and the N-terminal region (PS1-N: amino acid numbers 1-81 of PS-1 according to accession number L76517) as a negative control respectively were cloned into pGEX-5×-1 by PCR method, and were expressed in E. coli as GST fusion proteins. […] The mixture was centrifuged, unbound protein was discarded, and the beads were resuspended in 500 μl of binding buffer (20 mM Tris/Cl, pH 7.2 at 25° C., 140 mM NaCl, 0.1% Tween-20, 0.1 mM DTT, 4 mg/ml BSA and Complete™ Protease Inhibitor). In vitro-translated, [³⁵S]methionine-labeled (Promega TNT reticulocyte lysate system) ALEX1 was added to the mixture and incubated for 2.5 h at 4° C. to form complexes. Instead of ALEX1, luciferase as a negative control, and delta-catenin (615-1225) and delta-catenin (826-1225) as positive controls were used for same experiments. The beads were washed five times in wash buffer (20 mM Tris/Cl, pH 7.2 at 25° C., 140 mM NaCl, 0.1% Tween-20 and Complete Protease Inhibitor), resuspended in 40 μl of 2×SSC sample buffer and incubated at 90° C. A half of the eluted protein was resolved by SDS-PAGE (4-20%) and visualized by BAS2000.

[2] = target: T2, delta-catenin (615-1225), in vitro translated and [^35S]methionine-labeled (UniProt Q9UQB3 615-1225, [^35S]methionine label)
T2 construct: range 615-1225; Positive control
T2 sequence (looked up): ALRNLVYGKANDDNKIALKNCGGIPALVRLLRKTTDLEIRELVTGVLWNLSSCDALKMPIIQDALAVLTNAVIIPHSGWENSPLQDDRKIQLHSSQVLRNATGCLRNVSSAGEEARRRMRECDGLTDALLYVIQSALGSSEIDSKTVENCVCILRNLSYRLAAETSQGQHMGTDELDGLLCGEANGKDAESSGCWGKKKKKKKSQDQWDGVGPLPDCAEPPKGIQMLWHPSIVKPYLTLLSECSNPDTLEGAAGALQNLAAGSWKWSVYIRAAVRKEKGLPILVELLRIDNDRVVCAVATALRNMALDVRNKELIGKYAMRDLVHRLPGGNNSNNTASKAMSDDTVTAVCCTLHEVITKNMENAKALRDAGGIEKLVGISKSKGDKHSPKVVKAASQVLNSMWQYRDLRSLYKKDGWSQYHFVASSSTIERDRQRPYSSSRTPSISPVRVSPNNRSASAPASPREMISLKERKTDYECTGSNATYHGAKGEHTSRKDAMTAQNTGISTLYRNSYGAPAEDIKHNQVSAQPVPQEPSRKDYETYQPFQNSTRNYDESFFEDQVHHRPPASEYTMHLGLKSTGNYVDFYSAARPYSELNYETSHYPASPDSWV
Text: as §1

[3] = target: T3, delta-catenin (826-1225), in vitro translated and [^35S]methionine-labeled (UniProt Q9UQB3 826-1225, [^35S]methionine label)
T3 construct: range 826-1225; Positive control
T3 sequence (looked up): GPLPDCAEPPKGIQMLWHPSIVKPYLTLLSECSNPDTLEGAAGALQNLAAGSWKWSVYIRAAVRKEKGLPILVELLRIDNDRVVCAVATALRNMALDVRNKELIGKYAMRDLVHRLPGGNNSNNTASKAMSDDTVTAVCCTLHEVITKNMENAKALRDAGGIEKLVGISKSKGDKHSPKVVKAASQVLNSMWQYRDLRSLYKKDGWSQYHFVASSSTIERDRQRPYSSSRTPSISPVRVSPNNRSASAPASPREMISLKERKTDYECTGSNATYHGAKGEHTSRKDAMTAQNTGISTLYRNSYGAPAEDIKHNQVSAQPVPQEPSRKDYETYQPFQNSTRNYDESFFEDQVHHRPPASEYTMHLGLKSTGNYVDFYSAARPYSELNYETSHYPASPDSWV
Text: as §1

binding result [1]: no binding
binding result [2]: no binding
binding result [3]: no binding
B1: GST (other)
chain: not shown
notes: Control, immobilized on glutathione-Sepharose beads
